The supplement of paper PMC8728848
The other results are listed elsewhere or left out.

What was measured:
Experiment in all cases: glycan array binding signal (z-score within array); higher = stronger binding
Settings in all cases: glycan notation: IUPAC condensed, linker removed; mutation: H84T
[1] = biological target: Neu5Ac(a2-6)Gal(b1-4)GlcNAc(b1-2)Man(a1-3)[Man(a1-6)]Man(b1-4)GlcNAc(b1-4)GlcNAc
Outline: (§1)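 Glycan array data came from 3228 arrays in the Consortium for Functional Glycomics database, and only arrays with an available protein sequence were kept. Glycan names were put into IUPAC-condensed notation, and columns mapping to the same glycan were averaged. The binding signal is a within-array Z-score, averaged across arrays of one protein sequence run at different concentrations or buffers and across linkers. A negative Z-score can be read as non-binding.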

[2] = biological target: Neu5Ac(a2-6)Gal(b1-4)GlcNAc(b1-2)Man(a1-3)[Neu5Ac(a2-3)Gal(b1-4)GlcNAc(b1-2)Man(a1-6)]Man(b1-4)GlcNAc(b1-4)GlcNAc
Outline: as §1

[3] = biological target: Neu5Ac(a2-6)Gal(b1-4)GlcNAc(b1-2)Man(a1-3)[Neu5Ac(a2-6)Gal(b1-4)GlcNAc(b1-2)Man(a1-6)]Man(b1-4)GlcNAc(b1-4)GlcNAc
Outline: as §1

[4] = biological target: Neu5Ac(a2-6)Gal(b1-4)GlcNAc(b1-2)Man(a1-3)[Neu5Ac(a2-6)Gal(b1-4)GlcNAc(b1-2)Man(a1-6)]Man(b1-4)GlcNAc(b1-4)[Fuc(a1-6)]GlcNAc
Outline: as §1

[5] = biological target: Neu5Ac(a2-6)Gal(b1-4)GlcNAc(b1-2)Man(a1-6)Man(b1-4)GlcNAc(b1-4)GlcNAc
Outline: as §1

[6] = biological target: Neu5Ac(a2-6)Gal(b1-4)GlcNAc(b1-2)Man(a1-6)[Gal(b1-4)GlcNAc(b1-2)Man(a1-3)]Man(b1-4)GlcNAc(b1-4)GlcNAc
Outline: as §1

[7] = biological target: Neu5Ac(a2-6)Gal(b1-4)GlcNAc(b1-2)Man(a1-6)[GlcNAc(b1-2)Man(a1-3)]Man(b1-4)GlcNAc(b1-4)GlcNAc
Outline: as §1

[8] = biological target: Neu5Ac(a2-6)Gal(b1-4)GlcNAc(b1-2)Man(a1-6)[Man(a1-3)]Man(b1-4)GlcNAc(b1-4)GlcNAc
Outline: as §1

[9] = biological target: Neu5Ac(a2-6)Gal(b1-4)GlcNAc(b1-2)[Neu5Ac(a2-6)Gal(b1-4)GlcNAc(b1-4)]Man(a1-3)[GlcNAc(b1-4)][Neu5Ac(a2-6)Gal(b1-4)GlcNAc(b1-2)[Neu5Ac(a2-6)Gal(b1-4)GlcNAc(b1-6)]Man(a1-6)]Man(b1-4)GlcNAc(b1-4)GlcNAc
Outline: as §1

[10] = biological target: Neu5Ac(a2-6)Gal(b1-4)GlcNAc(b1-2)[Neu5Ac(a2-6)Gal(b1-4)GlcNAc(b1-4)]Man(a1-3)[GlcNAc(b1-4)][Neu5Ac(a2-6)Gal(b1-4)GlcNAc(b1-4)Man(a1-6)]Man(b1-4)GlcNAc(b1-4)GlcNAc
Outline: as §1

[11] = biological target: Neu5Ac(a2-6)Gal(b1-4)GlcNAc(b1-2)[Neu5Ac(a2-6)Gal(b1-4)GlcNAc(b1-6)]Man(a1-6)[Neu5Ac(a2-6)Gal(b1-4)GlcNAc(b1-2)Man(a1-3)][GlcNAc(b1-4)]Man(b1-4)GlcNAc(b1-4)GlcNAc
Outline: as §1

[12] = biological target: Neu5Ac(a2-6)Gal(b1-4)GlcNAc(b1-3)Gal(b1-3)GlcNAc
Outline: as §1

[13] = biological target: Neu5Ac(a2-6)Gal(b1-4)GlcNAc(b1-3)Gal(b1-4)GlcNAc
Outline: as §1

[14] = biological target: Neu5Ac(a2-6)Gal(b1-4)GlcNAc(b1-3)Gal(b1-4)GlcNAc(b1-2)Man(a1-3)[Neu5Ac(a2-6)Gal(b1-4)GlcNAc(b1-3)Gal(b1-4)GlcNAc(b1-2)Man(a1-6)]GalNAc
Outline: as §1

[15] = biological target: Neu5Ac(a2-6)Gal(b1-4)GlcNAc(b1-3)Gal(b1-4)GlcNAc(b1-3)Gal(b1-4)GlcNAc
Outline: as §1

[16] = biological target: Neu5Ac(a2-6)Gal(b1-4)GlcNAc(b1-3)Gal(b1-4)GlcNAc(b1-3)Gal(b1-4)GlcNAc(b1-2)Man(a1-3)[Neu5Ac(a2-6)Gal(b1-4)GlcNAc(b1-3)Gal(b1-4)GlcNAc(b1-3)Gal(b1-4)GlcNAc(b1-2)Man(a1-6)]GalNAc
Outline: as §1

[17] = biological target: Neu5Ac(a2-6)Gal(b1-4)GlcNAc(b1-3)Gal(b1-4)GlcNAc(b1-3)GalNAc
Outline: as §1

[18] = biological target: Neu5Ac(a2-6)Gal(b1-4)GlcNAc(b1-3)Gal(b1-4)GlcNAc(b1-3)[Neu5Ac(a2-6)Gal(b1-4)GlcNAc(b1-3)Gal(b1-4)GlcNAc(b1-6)]GalNAc
Outline: as §1

[19] = biological target: Neu5Ac(a2-6)Gal(b1-4)GlcNAc(b1-3)Gal(b1-4)GlcNAc(b1-6)[Gal(b1-3)]GalNAc
Outline: as §1

[20] = biological target: Neu5Ac(a2-6)Gal(b1-4)GlcNAc(b1-3)Gal(b1-4)[Fuc(a1-3)]GlcNAc(b1-3)Gal(b1-4)[Fuc(a1-3)]GlcNAc
Outline: as §1

[21] = biological target: Neu5Ac(a2-6)Gal(b1-4)GlcNAc(b1-3)GalNAc
Outline: as §1

[22] = biological target: Neu5Ac(a2-6)Gal(b1-4)GlcNAc(b1-3)[Neu5Ac(a2-6)Gal(b1-4)GlcNAc(b1-6)]GalNAc
Outline: as §1

[23] = biological target: Neu5Ac(a2-6)Gal(b1-4)GlcNAc(b1-6)GalNAc
Outline: as §1

[24] = biological target: Neu5Ac(a2-6)Gal(b1-4)GlcNAc(b1-6)[Gal(b1-3)GlcNAc(b1-3)]Gal(b1-4)Glc
Outline: as §1

[25] = biological target: Neu5Ac(a2-6)Gal(b1-4)GlcNAc(b1-6)[Gal(b1-3)]GalNAc
Outline: as §1

[26] = biological target: Neu5Ac(a2-6)Gal(b1-4)GlcNAc6S
Outline: as §1

Neu5Ac(a2-6)GalNAc = biological target: Neu5Ac(a2-6)GalNAc
Outline: as §1

[27] = biological target: Neu5Ac(a2-6)GalNAc(b1-4)GlcNAc
Outline: as §1

[28] = biological target: Neu5Ac(a2-6)GalNAc(b1-4)GlcNAc6S
Outline: as §1

[29] = biological target: Neu5Ac(a2-6)GlcNAc(b1-4)GlcNAc
Outline: as §1

[30] = biological target: Neu5Ac(a2-6)GlcNAc(b1-4)GlcNAc(b1-4)GlcNAc
Outline: as §1

B1: Banana lectin (Musa acuminata) (protein)
chain: MNGAIKVGAWGGNGGSAFDMGPAYRIISVKIFSGDVVDGVDVTFTYYGKTETRHYGGSGGTPHEIVLQEGEYLVGMAGEVANYTGAVVLGKLGFSTNKKAYGPFGNTGGTPFSLPIAAGKISGFFGRGGKFLDAIGVYLEPLEHHHHHH
- glycan array binding signal (z-score) [1]: 0.399
- glycan array binding signal (z-score) [2]: -0.141
- glycan array binding signal (z-score) [3]: -0.164
- glycan array binding signal (z-score) [4]: -0.15
- glycan array binding signal (z-score) [5]: -0.146
- glycan array binding signal (z-score) [6]: -0.134
- glycan array binding signal (z-score) [7]: -0.188
- glycan array binding signal (z-score) [8]: 1.33
- glycan array binding signal (z-score) [9]: -0.159
- glycan array binding signal (z-score) [10]: -0.177
- glycan array binding signal (z-score) [11]: -0.174
- glycan array binding signal (z-score) [12]: -0.188
- glycan array binding signal (z-score) [13]: -0.205
- glycan array binding signal (z-score) [14]: -0.094
- glycan array binding signal (z-score) [15]: -0.161
- glycan array binding signal (z-score) [16]: -0.177
- glycan array binding signal (z-score) [17]: -0.214
- glycan array binding signal (z-score) [18]: -0.161
- glycan array binding signal (z-score) [19]: -0.221
- glycan array binding signal (z-score) [20]: -0.085
- glycan array binding signal (z-score) [21]: -0.177
- glycan array binding signal (z-score) [22]: -0.173
- glycan array binding signal (z-score) [23]: -0.158
- glycan array binding signal (z-score) [24]: -0.172
- glycan array binding signal (z-score) [25]: -0.182
- glycan array binding signal (z-score) [26]: -0.145
- glycan array binding signal (z-score) (Neu5Ac(a2-6)GalNAc): -0.16
- glycan array binding signal (z-score) [27]: -0.198
- glycan array binding signal (z-score) [28]: -0.17
- glycan array binding signal (z-score) [29]: -0.155
- glycan array binding signal (z-score) [30]: -0.201
